# Reference: PubChem BioAssay (NCATS)
# Where “and” joins values, the source holds several entries; their conditions need not be identical. Equal values may be shown once. Inconclusive means that the source gave no clear call. Such entries were picked first, then a sample of the others. For some assays here: Where the call is inconclusive, the potency comes from a doubtful curve fit. Calls of active or inactive are those of the source. Unless noted, the call rests on the fitted dose curve; in most records, active means well fitted curve in the direction sought with a large enough effect; inconclusive means small, poorly fitted or top-dose-only effect, or another doubt; inactive means no such curve, though single readings can be large; an effect the other way counts as inactive or inconclusive.
# Experiments:
# [1] = NFAT Signaling Pathway (AID 444; active means well fitted curve in either direction with a large enough effect, not every such curve was filed as active; inconclusive means small, poorly fitted or top-dose-only effect, or another doubt;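 further: carbachol stimulus at about its EC50 of 1 µM final; on the % scale 0 is the no-effect control and ±100 the full control effect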); details: Jurkat NFAT-bla M1, carbachol, beta-lactamase ratio, 5 h
# Method in brief: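 Jurkat cells carrying an NFAT-driven β-lactamase reporter and co-transfected muscarinic M1 receptor were treated with compound plus carbachol (1 uM final, an EC50 level) for 5 h at 37 °C. CCF4 loading followed for 1 h at RT; 460/530 nm ratio gave %activity.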
# [2] = qHTS Assay for Identifying Gametocytocidal Compounds (AID 743244); further: potency means the concentration at half of the fitted maximal effect; details: P. falciparum 3D7 stage III-V gametocytes, alamarBlue, 72 h; max response: active compounds read low
# Method in brief: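 A resazurin-based viability read-out was applied to mature P. falciparum gametocytes: 72 h compound treatment, then 24 h dye incubation, with falling fluorescence signalling gametocytocidal effect.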
# [3] = qHTS Validation Assay to Find Inhibitors of Chronic Active B-Cell Receptor Signaling (AID 485345; active means well fitted curve in the direction sought with a large enough effect in the main read-out, with a control signal flat, not every such curve was filed as active; inconclusive means small, poorly fitted or top-dose-only effect, or effect the other way, or a change in a side signal; inactive means no such curve, though single readings can be large or run the other way;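 further: 0% = untreated basal cells and 100% = 10 µM MG-132 proteasome inhibitor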); details: ABC-DLBCL cells, chronic BCR signaling reporter; activity change: CBG luciferase, at 46.1 µM (top of the series)
# Method in brief: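 TMD8 ABC-DLBCL cells with dox-inducible green luciferase–IκBα fusion and red native luciferase; compounds 46 uM–3 nM, 4 h at 37C with doxycycline in 0.5% FBS IMDM. Green/red ratio normalized to basal and 10 uM MG-132.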
# [4] = qHTS for differential inhibitors of proliferation of Plasmodium falciparum line Dd2 (AID 1882); details: Potency: Plasmodium falciparum Dd2 proliferation inhibition; further: nearly all actives have a fitted effect of over 65% in size; further: potency means the concentration at half of the fitted maximal effect;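 on activity change, negative = inhibition: plate controls were DMSO vehicle for no effect and 0.29 µM artemisinin for full effect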
# Method in brief: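 SYBR Green DNA fluorescence (ex 485, em 535 nm) after overnight lysis quantifies parasite growth; compound exposure lasted 72 h at 37 C on infected red cells at 2.5% hematocrit, 0.3% parasitemia (final). Artemisinin 0.29 uM and vehicle wells define normalization.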
# [5] = High Content Imaging Cell-Based qHTS for Inhibitors of the mTORC1 Signaling Pathway in MEF Cells (AID 2667); further: potency means the concentration at half of the fitted maximal effect;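 on activity change, negative = inhibition: Tsc2-/- p53-/- MEFs stably re-expressing wild-type Tsc2 exposed 24 h; plate controls were DMSO wells for no effect and rapamycin control wells for full effect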
# Method in brief: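 Fixed-cell imaging of phospho-S6 (Ser235/236, Alexa-488) after 24 hrs of compound treatment at 37 degree Celsius. Signal was normalized to Hoechst, and thresholds from the highest and lowest wells split cells into % active versus % non-active.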
# [6] = target: D(1A) dopamine receptor (Homo sapiens) (UniProt P21728); experiment: HTS Assay for Allosteric Agonists of the Human D1 Dopamine Receptor: Primary Screen for Potentiators (AID 488982); further: potency means the concentration at half of the fitted maximal effect
# Method in brief: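 Tetracycline-induced HEK293 T-REx cells force-coupled to calcium signalling were incubated overnight at 30 C and dye-loaded at room temperature. Calcium flux over 180 s after compound addition flagged agonists; a further 180 s read after EC20 dopamine flagged potentiators.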
# [7] = test system: Zika virus NS2B-NS3 protease (unlinked); experiment: Optimization of GU AMC qHTS for Zika virus inhibitors: Unlinked NS2B-NS3 protease assay (AID 1347151); further: nearly all actives have a fitted effect of over 80% in size; further: potency means the concentration at half of the fitted maximal effect;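 on activity change, negative = inhibition: 0% = no-inhibitor control and -100% = no-enzyme control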
# Method in brief: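 Fluorescence read-out (340 nm ex / 450 nm em) of AMC peptide cleavage, taken immediately and after 15 min at room temperature (~20% conversion). Enzyme was the unlinked NS2B–NS3 complex at 25 nM in Tris pH 8.0 buffer.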
# [8] = Counterscreen for APE1 Inhibitors: Fluorescent Dye Displacement Validation Assay (AID 1707);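 further: plate controls were ThO with dsDNA and no compound for no effect and ThO without dsDNA for full effect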
# Method in brief: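 Signal: ThO fluorescence (ex 480 nm/em 540 nm) on binding 50 nM dsDNA; displacement by test compound reduces it. Conditions: 250 nM dye, 50 mM Tris-HCl pH7.5, 2 mM MgCl2, 50mM NaCl, 0.01% Tween-20.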
# [9] = Cytometry Cell-Based qHTS for Inhibitors of the mTORC1 Signaling Pathway in MEF cells (AID 2668); further: potency means the concentration at half of the fitted maximal effect
# Method in brief: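 Read-out: phospho-rpS6 Ser235/236 immunofluorescence normalized to propidium iodide intensity, scored as % active cells against a rapamycin (7.5 nM) threshold. Cells: Tsc2-/-, p53-/- MEFs stably expressing WT Tsc2, compound-treated 24 hrs at 37 degree Celsius.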
# [10] = target: 3',5'-cyclic-AMP phosphodiesterase 4B (Homo sapiens) (UniProt Q07343); experiment: qHTS Assay for Inhibitors of PDE-IV (AID 607; active means well fitted activation curve with a large enough effect in the main read-out, with a control signal flat, not every such curve was filed as active; inconclusive means small, poorly fitted or top-dose-only effect, or effect the other way, or a change in a side signal; further: potency means the concentration at half of the fitted maximal effect); details: HEK293 ACTOne CNG channel cells, membrane potential fluorescence; activation (PDE inhibition): at 22.9 µM (top of the series)
# Method in brief: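 ACTOne HEK293 cells carry a modified cAMP-gated CNG channel and express endogenous PDE4; plated 1000 cells/well, compounds up to 22.9 uM final. Membrane-potential dye fluorescence (ex 535/em 590) was read; parental cells received 10 uM forskolin + 100 uM RO 20-1724.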
# [11] = target: D(1A) dopamine receptor (Homo sapiens) (UniProt P21728); experiment: HTS Assay for Allosteric Agonists of the Human D1 Dopamine Receptor: Primary Screen for Antagonists (AID 488983); details: D1 receptor cell assay, antagonist mode, qHTS titration; activity change, negative = inhibition: at 41.8 µM (top of the series);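 further: calcium flux response to an EC80 dopamine challenge measured with no-wash dye; nearly all actives have a fitted effect of over 65% in size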; further: potency means the concentration at half of the fitted maximal effect; on activity change, negative = inhibition: on the % scale 0 is the no-effect control and ±100 the full control effect
# Method in brief: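 Kinetic fluorescence at 1 cycle/sec tracked intracellular calcium in force-coupled, tetracycline-inducible HEK293 T-REx D1 cells. Loss of response to an EC80 dopamine dose, given 180 s after compound, marked antagonists.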
# [12] = Quantitative high throughput screen for delayed death inhibitors of the malarial parasite plastid, 48 hour incubation (AID 488752); further: potency means the concentration at half of the fitted maximal effect; nearly all actives have a fitted effect of over 65% in size
# Method in brief: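 First, compound was pinned into RPMI 1640 medium containing 0.5% Albumax. Next, reporter-parasite-infected erythrocytes were added to 2% hematocrit and 0.1% parasitemia. After 48 h at 37 C under 5% CO2, luciferase detection reagent was added and luminescence read.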
# [13] = Tertiary RLuc qRT-PCR qHTS assay for Zika virus inhibitors (AID 1347169); further: potency means the concentration at half of the fitted maximal effect; nearly all actives have a fitted effect of over 55% in size
# Method in brief: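 Luminescence read-out: live-cell Renilla luciferase substrate applied to infected Vero cells, signal measured after 1-1.5 hrs. Cells had received compound before ZIKV-RLuc (Cambodian strain, MOI 1-2) infection and were incubated 48-72 hrs at 37 degrees C.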
# [14] = target: M-phase phosphoprotein 8 (Homo sapiens) (UniProt Q99549); experiment: qHTS Validation Assay for Inhibitors for MPP8 Chromodomain Interactions with Methylated Histone Tails (AID 488949); details: AlphaScreen MPP8 binding to H3K9me3 peptide; activity change, negative = inhibition: at 57.1 µM (top of the series) unless noted; further: potency means the concentration at half of the fitted maximal effect; nearly all actives have a fitted effect of over 55% in size
# Method in brief: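 AlphaScreen read-out: streptavidin donor and nickel chelate acceptor beads (final 10 ug/mL), 30 min in the dark at RT. Complex of 50 nM MPP8 and 50 nM b-H3(1-18)K9me3 peptide had been exposed to compounds for 30 min beforehand.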
# [15] = qHTS Assay for Modulators of Human Peripheral Myelin Protein 22 (PMP22) Expression/Activity (AID 1967; active means well fitted curve in the direction sought with a large enough effect in the signal ratio; inconclusive means small, poorly fitted or top-dose-only effect, or effect the other way, or a change in a side signal; inactive means no such curve, though single readings can be large or run the other way; the % refers to the signal ratio; further: potency means the concentration at half of the fitted maximal effect;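 on activity change (ratio): 0% = untreated cells and 100% end not stated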); details: Cell-based PMP22 reporter, dual-color luciferase ratio, mouse Pmp22 promoter in mouse Schwann cells; activity change (ratio): at 115 µM (top of the series), 0% = compound-free control cells
# Method in brief: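 Mouse MSC80 Schwann line, Pmp22 promoter–CBG68 reporter, EF-alpha–CBR internal control. 24h compound exposure, 37 °C/5% CO2, DMEM + 10% FBS. Readout: corrected green/red luminescence ratio, normalized to untreated cells; concentration-response curves fitted and classified.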
# [16] = target: Peptidyl-prolyl cis-trans isomerase NIMA-interacting 1 (Homo sapiens) (UniProt Q13526); experiment: qHTS Validation Assay to Find Inhibitors of Pin1 (AID 504536; active means well fitted inhibition curve with a large enough effect in the polarisation, with a control signal flat, not every such curve was filed as active; inconclusive means small, poorly fitted or top-dose-only effect, or effect the other way; the % refers to the polarisation; further: potency means the concentration at half of the fitted maximal effect)
# Method in brief: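 Fluorescence polarization competition: compounds (titration) displace HiFluor-488-labeled Pin1-1b peptide from Pin1 (0.3 uM final) in pH 7.5 HEPES buffer with DTT, 10 min at room temperature; %Activity normalized to no-enzyme wells, curves fitted.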
# [17] = target: DNA repair nuclease/redox regulator APEX1 (Homo sapiens) (UniProt P27695); experiment: qHTS Validation Assay for Inhibitors of the Human Apurinic/apyrimidinic Endonuclease 1 (APE1) (AID 1705; further: potency means the concentration at half of the fitted maximal effect;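 on activity change, negative = inhibition: TAMRA fluorescence gain over two minutes as APE1 cuts a quenched THF abasic duplex; on the % scale 0 is the no-effect control and ±100 the full control effect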)
# Method in brief: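 Read-out: TAMRA fluorescence (525 nm ex, 598 nm em) from cleavage of a quenched THF abasic-site duplex, 50 nM final; activity taken as intensity change between third and first of three reads 60 s apart.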
# [18] = test system: Zika virus NS2B-NS3 protease; experiment: Primary screen GU AMC qHTS for Zika virus inhibitors (AID 1347154); further: potency means the concentration at half of the fitted maximal effect; nearly all actives have a fitted effect of over 70% in size
# Method in brief: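 Unlinked Zika NS2B hydrophilic domain/NS3 protease domain noncovalent complex (25 nM final) in 10 mM Tris-HCl pH 8.0, 0.01% Tween 20, with AMC peptide substrate. Fluorescence (ex 340, em 450 nm) change over 15 min, room temperature; percent inhibition fitted to 4-parameter Hill equation.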
# [19] = Nrf2 qHTS screen for inhibitors: Validation (AID 493153; active means well fitted inhibition curve with a large enough effect in the main read-out, with a control signal flat, not every such curve was filed as active; inconclusive means small, poorly fitted or top-dose-only effect, or effect the other way, or a change in a side signal; inactive means no such curve, though single readings can be large or run the other way; further: potency means the concentration at half of the fitted maximal effect;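 on activity change, negative = inhibition: A549 cells with ARE-driven firefly luciferase reporter reporting Nrf2 activity; % of control where 0% means no effect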)
# Method in brief: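 A549 ARE_Fluc, 5% FBS OPTI-MEM; cpd titration, 18-24 h, 37°C/5% CO2. Read 1: CellTiter-Fluor (Ex 405/Em 525), cytotox. Read 2: luciferase lum, Nrf2 activity.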
# [20] = target: Tyrosine-protein phosphatase non-receptor type substrate 1 (Homo sapiens) + Leukocyte surface antigen CD47 (Homo sapiens) (UniProt P78324+Q08722); experiment: CD47-SIRPalpha protein protein interaction - Alpha assay qHTS validation (AID 1347059);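 further: bead proximity luminescence from CD47 binding SIRPalpha after compound preincubation with SIRPalpha; on the % scale 0 is the no-effect control and ±100 the full control effect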
# Method in brief: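 In PBS (pH 7.4) with 0.05% IGEPAL CA-630, compound is preincubated with biotin-Avi-SIRPalpha ectodomain before His-CD47 ectodomain and affinity beads are added. Light-protected room-temperature incubations; AlphaScreen readout.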
# Tags describe the fitted curve by direction and shape or compound fluorescence and quenching.
# UniProt Q07343, sequence (Q07343 whole entry, looked up): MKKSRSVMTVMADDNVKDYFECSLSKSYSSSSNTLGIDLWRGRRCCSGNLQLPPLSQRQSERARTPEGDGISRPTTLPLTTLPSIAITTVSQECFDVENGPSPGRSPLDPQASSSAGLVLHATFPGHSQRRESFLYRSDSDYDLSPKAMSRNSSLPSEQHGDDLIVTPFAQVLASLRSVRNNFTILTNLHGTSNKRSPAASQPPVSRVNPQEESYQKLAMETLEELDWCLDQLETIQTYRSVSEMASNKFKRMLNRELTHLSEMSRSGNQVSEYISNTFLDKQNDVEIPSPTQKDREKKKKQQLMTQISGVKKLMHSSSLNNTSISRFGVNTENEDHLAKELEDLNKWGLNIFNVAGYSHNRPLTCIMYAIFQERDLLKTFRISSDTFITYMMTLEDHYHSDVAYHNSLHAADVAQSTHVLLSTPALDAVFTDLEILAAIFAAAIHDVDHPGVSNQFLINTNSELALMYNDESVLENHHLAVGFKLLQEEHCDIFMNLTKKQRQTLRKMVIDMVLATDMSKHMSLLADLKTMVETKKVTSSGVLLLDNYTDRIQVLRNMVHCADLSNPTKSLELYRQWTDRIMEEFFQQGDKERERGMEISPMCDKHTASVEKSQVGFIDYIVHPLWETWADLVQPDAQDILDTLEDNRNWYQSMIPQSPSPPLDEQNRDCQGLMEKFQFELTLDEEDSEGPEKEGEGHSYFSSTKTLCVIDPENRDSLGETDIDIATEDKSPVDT
# UniProt P27695, sequence (P27695 whole entry, looked up): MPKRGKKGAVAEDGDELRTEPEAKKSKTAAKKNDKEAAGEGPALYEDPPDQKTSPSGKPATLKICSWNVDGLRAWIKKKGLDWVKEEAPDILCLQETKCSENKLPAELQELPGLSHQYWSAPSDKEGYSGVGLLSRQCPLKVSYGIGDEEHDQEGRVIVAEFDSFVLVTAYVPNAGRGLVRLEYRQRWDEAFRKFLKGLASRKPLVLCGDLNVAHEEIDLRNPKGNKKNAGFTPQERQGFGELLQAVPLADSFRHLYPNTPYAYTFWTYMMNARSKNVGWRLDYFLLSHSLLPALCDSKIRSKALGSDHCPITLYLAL
# UniProt P21728, sequence (P21728 whole entry, looked up): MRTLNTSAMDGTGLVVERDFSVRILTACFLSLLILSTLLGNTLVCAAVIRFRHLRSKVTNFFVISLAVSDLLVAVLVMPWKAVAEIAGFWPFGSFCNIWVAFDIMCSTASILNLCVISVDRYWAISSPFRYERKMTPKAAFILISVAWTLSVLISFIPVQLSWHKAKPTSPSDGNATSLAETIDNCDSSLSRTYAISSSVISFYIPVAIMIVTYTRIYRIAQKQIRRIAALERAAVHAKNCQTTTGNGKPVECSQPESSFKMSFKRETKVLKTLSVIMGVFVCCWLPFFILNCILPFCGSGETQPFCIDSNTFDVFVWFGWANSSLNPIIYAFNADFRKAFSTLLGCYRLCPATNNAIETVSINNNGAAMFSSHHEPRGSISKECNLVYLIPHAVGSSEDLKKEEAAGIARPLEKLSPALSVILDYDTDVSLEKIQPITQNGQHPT
# UniProt Q99549, sequence (Q99549 whole entry, looked up): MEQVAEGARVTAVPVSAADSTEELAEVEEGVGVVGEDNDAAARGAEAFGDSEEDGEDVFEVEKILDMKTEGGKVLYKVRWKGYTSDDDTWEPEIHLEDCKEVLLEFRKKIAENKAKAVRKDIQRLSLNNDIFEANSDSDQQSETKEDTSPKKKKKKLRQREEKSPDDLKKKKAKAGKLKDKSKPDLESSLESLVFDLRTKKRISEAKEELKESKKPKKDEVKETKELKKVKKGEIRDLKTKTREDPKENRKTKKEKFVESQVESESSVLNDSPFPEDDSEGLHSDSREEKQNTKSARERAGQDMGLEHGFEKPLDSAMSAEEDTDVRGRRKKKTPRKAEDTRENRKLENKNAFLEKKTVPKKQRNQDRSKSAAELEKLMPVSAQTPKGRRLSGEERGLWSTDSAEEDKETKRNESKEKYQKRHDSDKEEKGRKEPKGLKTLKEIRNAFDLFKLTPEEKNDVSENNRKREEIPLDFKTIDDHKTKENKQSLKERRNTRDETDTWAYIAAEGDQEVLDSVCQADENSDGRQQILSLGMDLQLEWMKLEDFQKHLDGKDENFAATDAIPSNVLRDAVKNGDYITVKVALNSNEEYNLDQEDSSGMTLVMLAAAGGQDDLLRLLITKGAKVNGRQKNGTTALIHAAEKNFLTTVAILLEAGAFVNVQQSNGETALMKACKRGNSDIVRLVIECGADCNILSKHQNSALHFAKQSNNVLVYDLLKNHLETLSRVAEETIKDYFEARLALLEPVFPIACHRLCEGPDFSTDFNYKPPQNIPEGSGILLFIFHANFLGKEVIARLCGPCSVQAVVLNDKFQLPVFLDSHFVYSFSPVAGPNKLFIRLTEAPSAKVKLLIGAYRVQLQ
# UniProt Q13526, sequence (Q13526 whole entry, looked up): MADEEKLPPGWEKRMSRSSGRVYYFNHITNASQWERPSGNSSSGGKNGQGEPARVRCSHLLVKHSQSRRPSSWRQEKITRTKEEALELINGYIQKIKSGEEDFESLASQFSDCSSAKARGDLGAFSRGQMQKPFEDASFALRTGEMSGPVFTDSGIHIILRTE
# UniProt P78324, sequence (P78324 whole entry, looked up, the tested form may be a part): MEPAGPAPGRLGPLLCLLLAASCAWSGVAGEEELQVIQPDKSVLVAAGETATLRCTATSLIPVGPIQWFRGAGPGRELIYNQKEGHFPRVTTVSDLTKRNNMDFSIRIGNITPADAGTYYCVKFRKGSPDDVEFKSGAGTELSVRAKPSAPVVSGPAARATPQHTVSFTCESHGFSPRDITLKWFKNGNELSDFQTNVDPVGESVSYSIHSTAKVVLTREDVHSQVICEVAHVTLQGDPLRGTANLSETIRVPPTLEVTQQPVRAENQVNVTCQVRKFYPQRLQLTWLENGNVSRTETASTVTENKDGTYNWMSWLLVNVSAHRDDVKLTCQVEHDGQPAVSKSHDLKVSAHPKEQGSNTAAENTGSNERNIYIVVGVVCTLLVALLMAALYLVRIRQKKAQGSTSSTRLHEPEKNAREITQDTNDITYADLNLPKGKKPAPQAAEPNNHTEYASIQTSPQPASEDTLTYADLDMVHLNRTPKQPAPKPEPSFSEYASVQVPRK
# UniProt P78324, sequence (Q08722 whole entry, looked up, the tested form may be a part): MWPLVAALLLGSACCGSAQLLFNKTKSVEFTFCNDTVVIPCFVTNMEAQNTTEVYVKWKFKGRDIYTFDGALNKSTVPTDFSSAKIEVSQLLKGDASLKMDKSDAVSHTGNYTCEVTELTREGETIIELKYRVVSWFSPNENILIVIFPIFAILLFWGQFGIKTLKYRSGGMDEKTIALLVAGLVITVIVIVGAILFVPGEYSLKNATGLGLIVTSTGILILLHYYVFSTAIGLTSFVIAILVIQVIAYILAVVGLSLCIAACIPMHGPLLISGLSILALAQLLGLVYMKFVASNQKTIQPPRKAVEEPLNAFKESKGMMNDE
structure (smiles),measurement,setting,value
CC(=O)OCC(=O)[C@@]1(O)CC[C@H]2[C@@H]3CCC4=CC(=O)CC[C@]4(C)[C@H]3C(=O)C[C@@]21C,"activity change, negative = inhibition",[1]; at 17.2 µM (top of the series),inconclusive: -40.1% [inhibitor]
same,Potency,[2],"inconclusive: 4.47 µM [inhibitor, single point]"
CNc1ncnc2c1ncn2[C@H]1C[C@H](OP(=O)(O)O)[C@@H](COP(=O)(O)O)O1,activity change,[3],inconclusive: -32.6%
COC(=O)C1=C(C)NC(C)=C([N+](=O)[O-])C1c1ccccc1C(F)(F)F (stereo unspecified),Potency,[4],"inconclusive: 10 µM [inhibitor, single point]"
same,Potency,[5],inactive
same,Potency,[6],inactive
same,Potency,[7],"inconclusive: 8.44 µM [inhibitor, partial curve, poor fit]"
CC1CCN(CC[C@H]2CCCN2S(=O)(=O)c2cccc(O)c2)CC1,Potency,[8],inactive
same,Potency,[4],"inconclusive: 17.8 µM [inhibitor, single point]"
COc1ccc(-c2cc3ncc(C)n3c(Nc3ncccc3C(N)=O)n2)cc1OC,Potency,[9],"inconclusive: 1.85 µM [falling, full curve, poor fit]"
CN1CCN(c2nc3cc(C(F)(F)F)ccc3n3cccc23)CC1,Potency,[10],"inconclusive: 15.8 µM [activator, partial curve, poor fit] and inconclusive: 7.55 µM [activator, partial curve]"
same,Potency,[11],"inconclusive: 10 µM [inhibitor, partial curve]"
same,Potency,[7],"inconclusive: 21.2 µM [inhibitor, partial curve, poor fit]"
OC[C@H]1O[C@@H](n2cnc3cncnc32)[C@H](O)[C@@H]1O,Potency,[12],"inconclusive: 8.28 µM [inhibitor, partial curve]"
O=C(NOCC1CC1)c1cc(Br)c(F)c(F)c1Nc1ccc(I)cc1Cl,Potency,[13],"inconclusive: 2.61 µM [inhibitor, full curve]"
Cc1cccc(C)c1OCC(N)C(C)C (stereo unspecified),Potency,[14],"inconclusive: 37.7 µM [inhibitor, single point]"
same,Potency,[2],active: 23.5 µM
same,Potency,[7],inactive
COc1ccc(-c2ccc(N)[n+](CCCC(=O)O)n2)cc1,Potency,[15],inactive
CCN(c1nc(N)c(C(=O)N=C(N)N)nc1Cl)C(C)C,Potency,[11],"inconclusive: 31.6 µM [activator, single point]"
same,Potency,[2],"inconclusive: 0.708 µM [inhibitor, full curve]"
CC(C)NCC(O)COc1ccc(CC(N)=O)cc1 (stereo unspecified),"activity change, negative = inhibition",[1]; at 17.2 µM (top of the series),inconclusive: 17.8% [activator]
same,Potency,[6],inactive
same,Potency,[16],inactive
CC(C)(CO)Cc1cc(C(C)(C)C)c(O)c(C(C)(C)C)c1,activity change,[3],inconclusive: -36.9%
same,Potency,[6],"inconclusive: 2.59 µM [activator, partial curve, poor fit]"
O=c1cc(O)cc(/C=C/c2ccc(O)c(O)c2)o1,Potency,[11],inactive
same,Potency,[16],"inconclusive: 12 µM [falling, partial curve]"
COc1ccc(/C=C2\COc3ccc(C)cc3C2=O)cc1O,Potency,[7],"inconclusive: 13.4 µM [inhibitor, partial curve, poor fit]"
N[C@@H](CCCC(=O)O)C(=O)O,Potency,[17],inactive
CNC(=O)c1cc2c(cn1)[nH]c1ccccc12,Potency,[10],"inconclusive: 19 µM [inhibitor, single point]"
same,Potency,[17],"inconclusive: 39.8 µM [inhibitor, single point]"
same,Potency,[4],inactive
same,Potency,[6],inactive
same,Potency,[18],active: 21.2 µM and active: 18.9 µM
same,Potency,[13],"inconclusive: 7.37 µM [inhibitor, full curve, poor fit]"
O=C(O)Cc1ccc(O)c(O)c1,"activity change, negative = inhibition",[1]; at 38 µM (top of the series),inactive: 12.7%
same,Potency,[17],active: 7.94 µM
same,Potency,[15],"inconclusive: 23.9 µM [cytotoxic, full curve]"
same,Potency,[14],"inconclusive: 89.1 µM [inhibitor, single point]"
same,Potency,[2],"inconclusive: 3.16 µM [inhibitor, partial curve]"
same,Potency,[18],"inconclusive: 29.9 µM [inhibitor, single point]"
O=c1[nH]c2cc(Cl)ccc2c(O)c1-c1ccc(Oc2ccccc2)cc1,Potency,[15],inactive
same,Potency,[19],"inconclusive: 16.4 µM [inhibitor, single point]"
Cn1cnc2c(NCc3ccccc3)nc(NCCO)nc21,"activity change, negative = inhibition",[1]; at 38 µM (top of the series),inconclusive: -35.8% [inhibitor]
same,Potency,[10],"inconclusive: 19 µM [inhibitor, single point]"
same,activity change (ratio),[15],inconclusive: 50.1%
O=[N+]([O-])c1cccc2c(Br)[nH]nc12,Potency,[10],"inconclusive: 9.51 µM [activator, partial curve, poor fit]"
same,Potency,[15],inactive
same,Potency,[19],inactive
CN1C2CCC1CC(OC(=O)c1c[nH]c3ccccc13)C2 (stereo unspecified),Potency,[8],inactive
same,Potency,[4],"inconclusive: 10 µM [inhibitor, single point]"
same,Potency,[5],"inconclusive: 1.65 µM [falling, partial curve]"
same,Potency,[9],"inconclusive: 14.7 µM [falling, single point]"
COc1ccc(-c2cc(=O)c3c(O)c(OC)c(OC)cc3o2)cc1O,Potency,[7],"inconclusive: 11.9 µM [inhibitor, partial curve]"
Nc1ncnc2c1nc(Br)n2C1OC2COP(=O)(O)O[C@@H]2C1O (stereo partly specified),Potency,[20],inactive
